According to PubChem BioAssay AID686979 (National Center for Advancing Translational Sciences (NCATS), 2013):
Screen size: about 420,000 compounds; about 50,000 (12%) were called active. Inconclusive means that the source gave no clear call. Such entries were picked first, then a sample of the others. The call rests on the fitted dose curve; in most records, active means well fitted inhibition curve with a large enough effect; inconclusive means small, poorly fitted or top-dose-only effect; inactive means flat fitted curve, though single readings scatter. Potencies of inconclusive entries are left out as doubtful fits.

Assay: qHTS for Inhibitors of human tyrosyl-DNA phosphodiesterase 1 (TDP1): qHTS in cells in presence of CPT; further: nearly all actives have a fitted effect of over 55% in size
Details: chicken DT40 Tdp1-/-;hTDP1 cells + 20 nM CPT, ATP luminescence, 48 h; activity change, negative = growth inhibition: at 46.2 µM (top of the series)
Procedure, shortened: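 Cell growth measured by CellTiter-Glo luminescence after a minimum 48 h, 37 C compound exposure with 20 nM CPT in Tdp1-knockout DT40 cells stably expressing hTDP1, seeded 400/well; qHTS titration format.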
On the % scale 0 is the no-effect control and ±100 the full control effect; potency means the concentration at half of the fitted maximal effect; tags describe the fitted curve by direction and shape.

Structure (SMILES) | Potency | activity change, negative = growth inhibition
Cc1ccccc1C(=O)N1CCC(C(=O)Nc2ccc3c(c2)OCO3)CC1 | inconclusive [inhibitor, single point] | 
CCOC(=O)N1C(=O)[C@](CC)(c2ccccc2)N1C(=O)OCC | active: 8.2 µM | 
Cc1ccc(S(=O)(=O)Nc2ccc(Cl)cc2C(=O)c2ccccc2)cc1 |  | inactive: -23.6%
COc1ccc2cc(CCNC(=O)c3ccc4c(c3)OCO4)c(=O)[nH]c2c1 | inconclusive [inhibitor, single point] | 
COc1ccc(OC)c2[nH]c(=O)c(CCNC(=O)c3ccc(S(=O)(=O)N4CCCC4)cc3)cc12 | inconclusive [inhibitor, partial curve, poor fit] | 
Cc1ccc(CN(C)C2CCN(C)CC2)cc1 | inconclusive [inhibitor, single point] | 
O=C(COC(=O)c1ccc(O)cc1O)NC1CC1 |  | inactive: -3.13%
CCOC(=O)c1c(-c2ccc(C)o2)csc1NC(=S)NC(=O)N(C)C | inconclusive [inhibitor, single point] | 
CN(CC(=O)Nc1ccc(F)cc1)C(=O)c1cccc(S(=O)(=O)N2CCN(c3ccccc3)CC2)c1 | active: 16.4 µM | 
O=[N+]([O-])c1ccc(-c2nc(C(Cl)Cl)c3ccccc3n2)cc1 | active: 0.146 µM | 
CC(=O)c1ccc([N+](=O)[O-])c(CS(=O)(=O)c2ccccc2)c1 |  | inactive: 2.31%
COCc1cc(C)n(CC(=O)Nc2ccccc2OC)c(=O)c1C#N | inconclusive [inhibitor, single point] | 
CCc1nc2c(OCc3ccccc3C)cccn2c1N(C)C(=O)C1CC1 | inconclusive [inhibitor, single point] | 
COc1ccc(NC(=O)C(C)N(C)Cc2ccc3ccccc3c2)cc1 (centres undefined) | inconclusive [inhibitor, single point] | 
O=C(O)C1CCN(C(=O)CSc2nc3ccccc3s2)CC1 | inconclusive [inhibitor, single point] | 
CCc1c(C)nc2ncnn2c1N1CCCC(C(=O)Nc2cc(F)ccc2C)C1 (centres undefined) | active: 16.4 µM | 
CCc1nnc(NC(=O)CSc2nnc(-c3ccccc3O)n2-c2ccc(C)cc2C)s1 | inconclusive [inhibitor, single point] | 
NC(=O)CC(NC(=O)Cc1ccc(Cl)cc1)c1ccc(NC2CCN(Cc3ccccc3)CC2)c([N+](=O)[O-])c1 (centres undefined) |  | inconclusive: -31.5% [inhibitor]
COc1cc(NC(=O)c2ccc(C)cc2C)ccc1NC(=O)c1cc2ccccc2o1 | inconclusive [inhibitor, partial curve] | 
CC(=O)c1cccc(OCC(=O)N(CCC2=CCCCC2)c2c(N)n(Cc3ccccc3)c(=O)[nH]c2=O)c1 | inconclusive [inhibitor, single point] | 
COc1ccc(S(=O)(=O)N(CC(=O)NCc2ccncc2)Cc2ccccc2)cc1 | inconclusive [inhibitor, single point] | 
CCOC(=O)Cn1nc(-c2ccccc2)c2cnc3ccc(C)cc3c21 | inconclusive [inhibitor, partial curve] | 
COc1ccc(CCNC(=O)CSc2cn(CCNC(=O)c3c(F)cccc3F)c3ccccc23)cc1OC | inconclusive [inhibitor, single point] | 

Structure (SMILES) | Potency | activity change, negative = growth inhibition
CCCN(C(=O)COC(=O)Cn1c(=O)oc2ccccc21)c1c(N)n(Cc2ccccc2)c(=O)[nH]c1=O |  | inactive: -11.2%
C[C@H]1CN([C@@H](C)CO)S(=O)(=O)c2ccc(Br)cc2O[C@@H]1CN(C)C(=O)C1CCOCC1 |  | inactive: -16%
CC(=O)Nc1ccc(NS(=O)(=O)c2c(C(=O)N3CCCCCC3)c(C)n(C)c2C)cc1 |  | inactive: 6.27%
CN(C)CCCN(C(=O)c1ccc2c(c1)CCCC2)c1nc2ccc(Cl)cc2s1 | active: 14.6 µM | 
CCSc1nc(N2CCCCC2)c2c(c1C#N)CCCC2 | inconclusive [inhibitor, single point] | 
COc1cc(C(=O)NCCCNc2nc3cc(C)c(C)cc3cc2C#N)cc(OC)c1OC | inconclusive [inhibitor, single point] | 
Cc1ccccc1OCC(=O)Nc1ccc(S(=O)(=O)N(Cc2ccccc2)c2ccccc2)cc1 | inconclusive [inhibitor, single point] | 
Cc1ccc(-c2nc3ncccc3o2)cc1NC(=O)c1ccc2c(c1)OCO2 |  | inactive: 1.85%
CC(=O)Oc1ccc2oc(=O)c3c(c2c1)CCCN3C(=O)CN1CCN(c2ncccn2)CC1 | inconclusive [inhibitor, single point] | 
c1ccc(CN2CCC3CC2c2c3cccc2N2CCOCC2)cc1 (centres undefined) | inconclusive [inhibitor, single point] | 
CCC(CC)NCC(O)COc1ccc(Br)cc1 (centres undefined) | inconclusive [inhibitor, single point] | 
CCOc1ccc(CCNC(=O)c2cc(C)nn2-c2ccccc2)cc1 | inconclusive [inhibitor, partial curve, poor fit] | 
Cc1ccc(C(=O)OC(C(=O)O)C(OC(=O)c2ccc(C)cc2)C(=O)O)cc1 (centres undefined) |  | inactive: -9.25%
Cc1ccccc1-n1ncc(C(C)NS(=O)(=O)c2ccccc2Cl)c1C (centres undefined) | inconclusive [inhibitor, single point] | 
O=C(O)CC(CC(=O)NCC(O)c1ccccc1)c1ccccc1 (centres undefined) |  | inactive: 3.38%
O=C(Cc1coc2cc3c(cc12)CCC3)NCC1(N2CCCCC2)CCCCC1 | inconclusive [inhibitor, single point] | 
CCOC(=O)c1c(CC(C)C)csc1NC(=O)CCl | active: 13 µM | 
C(=N\n1cnnc1)/c1ccc2c(c1)OCO2 |  | inactive: 4.46%
COc1ccc(Cn2c(=O)c3oc4ccccc4c3n(CC(=O)Nc3c(C)cccc3C)c2=O)cc1 | active: 7.31 µM | 
Cc1ccc(C(=O)COC(=O)CCC(=O)Nc2ccc(Oc3ccccc3)cc2)cc1 | inconclusive [inhibitor, single point] | 
Cc1cccc(N2CCN(C(=O)c3ccccn3)CC2C)c1 (centres undefined) | inconclusive [inhibitor, partial curve] | 
COc1ccc(-c2nc3c(c(SCc4ccc(Br)cc4)n2)Cc2c(CO)cnc(C)c2O3)cc1 | inconclusive [inhibitor, single point] | 
Cc1nnc(SCc2cccc3ccccc23)n(N)c1=O | inconclusive [inhibitor, single point] | 

Structure (SMILES) | Potency | activity change, negative = growth inhibition
CC(C)=NNc1nc(-c2ccc([N+](=O)[O-])cc2)cs1 | inconclusive [inhibitor, single point] | 
Cc1cnc(CNc2cc(-c3ccc(N(C)C)cc3)ncn2)cn1 |  | inactive: -26.6%
Cc1cccc(N2O[C@H]3C=CC2CCCC3)n1 |  | inactive: 2.68%
c1ccc(-c2cn(CC3CCCCC3)nn2)cc1 | inconclusive [inhibitor, single point] | 
Cc1oc2cc3oc(=O)c(CCC(=O)NCCc4ccccc4F)c(C)c3cc2c1C | active: 23.1 µM | 
Cc1ccccc1C(=O)c1c[nH]c(C(=O)NCc2ccco2)c1 | inconclusive [inhibitor, partial curve] | 
O=C(Nc1cc([N+](=O)[O-])ccc1F)C1CCN(S(=O)(=O)c2cccs2)CC1 | inconclusive [inhibitor, full curve, poor fit] | 
CCC(=O)N1c2ccccc2CC1C(=O)NCc1ccc(CC)cc1 (centres undefined) |  | inactive: -20.9%
CCc1ccc(-c2cc(C(=O)N/N=C/c3c[nH]c4ccccc34)[nH]n2)cc1 | active: 16.4 µM | 
COc1ccc(C2C(C#N)=C(C)NC3=C2C(=O)CC(C)(C)C3)c(OC)c1 (centres undefined) | inconclusive [inhibitor, single point] | 
O=C(CCS(=O)(=O)c1ccc(Br)cc1)NCCc1ccc(Cl)cc1 |  | inconclusive: -31.7% [inhibitor]
Cc1ncsc1CCC(=O)N1CCCC(Nc2ccc(C(C)C)cc2)C1 (centres undefined) | inconclusive [inhibitor, partial curve] | 
Cc1ccnc(NC(=O)C2CCN(S(=O)(=O)c3ccc(C)c(C)c3)CC2)c1 |  | inactive: -3.64%
O=C(COC(=O)CNC(=O)c1ccc(Cl)c([N+](=O)[O-])c1)NC(=O)CN1CCCC1=O |  | inactive: 18.8%
NC(c1ccccc1)c1csc(Nc2ccc(C(=O)NCCO)cc2)n1 (centres undefined) | inconclusive [inhibitor, single point] | 
COc1ccc(OC)c(NC(=O)CSc2nc3ccccc3cc2Cc2ccccc2)c1 | inconclusive [inhibitor, single point] | 
O=C(Cc1ccccc1)NNC(=O)Nc1ccc(Cl)c(Cl)c1 | active: 16.4 µM | 
C=CCC[C@@H](Cc1ccc(F)cc1)C(=O)OC[C@@H](Cc1ccccc1)NC(=O)[C@@H](CC=C)CC(=O)N[C@@H](CO)Cc1ccccc1 | inconclusive [inhibitor, partial curve] | 
S=C(NCc1ccco1)NC1CCCc2ccccc21 (centres undefined) | inconclusive [inhibitor, single point] | 
CC(C)C(C(=O)Nc1ccncc1)c1ccc(Cl)cc1 (centres undefined) | inconclusive [inhibitor, single point] | 
CCN(CC)C(=O)Cn1cc(S(=O)(=O)CC(=O)N2CC(C)OC(C)C2)c2ccccc21 (centres undefined) |  | inactive: -8.97%
O=C(Nc1ccccc1)c1ccc2c(c1)OCCCO2 | inconclusive [inhibitor, partial curve] | 
C=C(C)CNC(=S)N/N=C/c1ccc(N2CCOCC2)cc1 | inconclusive [inhibitor, single point] | 
